From PMC10150487, “m^6A readers ECT2/ECT3/ECT4 enhance mRNA stability through direct recruitment of the poly(A) binding proteins in Arabidopsis” (Genome Biology, 2023) come the findings set out here.

No constants are given. Whether binding was seen depends on the method and setting. Some binding calls cover weakened binding; strength is not graded here. Where a sequence is shown, tags or fusion partners need not be part of it.

In experiment [1] the target is T1, GST-tagged full-length ECT2 (Arabidopsis thaliana, UniProt Q9LJE5 1-667).
T1 construct: also called GST-ECT2; Evolutionarily conserved C-terminal region 2
T1 sequence (looked up): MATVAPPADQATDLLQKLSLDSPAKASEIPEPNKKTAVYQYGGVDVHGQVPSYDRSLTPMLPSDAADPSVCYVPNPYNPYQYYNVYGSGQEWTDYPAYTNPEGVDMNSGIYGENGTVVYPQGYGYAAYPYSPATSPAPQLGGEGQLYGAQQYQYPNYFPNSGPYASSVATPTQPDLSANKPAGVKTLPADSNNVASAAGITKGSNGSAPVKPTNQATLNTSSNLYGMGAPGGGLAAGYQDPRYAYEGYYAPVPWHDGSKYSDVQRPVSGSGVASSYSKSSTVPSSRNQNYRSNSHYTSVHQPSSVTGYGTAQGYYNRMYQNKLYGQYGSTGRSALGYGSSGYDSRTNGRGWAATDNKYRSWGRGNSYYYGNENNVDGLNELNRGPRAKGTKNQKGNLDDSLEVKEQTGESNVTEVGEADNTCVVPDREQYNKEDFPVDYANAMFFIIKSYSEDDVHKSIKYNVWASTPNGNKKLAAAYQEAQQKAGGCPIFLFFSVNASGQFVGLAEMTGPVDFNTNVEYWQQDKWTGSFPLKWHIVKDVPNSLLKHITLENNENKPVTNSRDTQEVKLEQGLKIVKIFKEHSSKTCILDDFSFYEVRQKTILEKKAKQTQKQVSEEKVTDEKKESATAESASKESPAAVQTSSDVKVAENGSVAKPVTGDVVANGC
Description: pull-down; GST pull-down: purified MBP-ECT3 and SUMO-ECT4 incubated with GST-ECT2 or GST alone, GST magnetic beads, immunoblot with anti-GST, anti-MBP and anti-SUMO; both purified. In general terms: Immunoblotting shows a protein as a band on a membrane.

Experiment [2] concerns the target T2, ECT2-BD (Arabidopsis thaliana) (UniProt Q9LJE5).
T2 sequence: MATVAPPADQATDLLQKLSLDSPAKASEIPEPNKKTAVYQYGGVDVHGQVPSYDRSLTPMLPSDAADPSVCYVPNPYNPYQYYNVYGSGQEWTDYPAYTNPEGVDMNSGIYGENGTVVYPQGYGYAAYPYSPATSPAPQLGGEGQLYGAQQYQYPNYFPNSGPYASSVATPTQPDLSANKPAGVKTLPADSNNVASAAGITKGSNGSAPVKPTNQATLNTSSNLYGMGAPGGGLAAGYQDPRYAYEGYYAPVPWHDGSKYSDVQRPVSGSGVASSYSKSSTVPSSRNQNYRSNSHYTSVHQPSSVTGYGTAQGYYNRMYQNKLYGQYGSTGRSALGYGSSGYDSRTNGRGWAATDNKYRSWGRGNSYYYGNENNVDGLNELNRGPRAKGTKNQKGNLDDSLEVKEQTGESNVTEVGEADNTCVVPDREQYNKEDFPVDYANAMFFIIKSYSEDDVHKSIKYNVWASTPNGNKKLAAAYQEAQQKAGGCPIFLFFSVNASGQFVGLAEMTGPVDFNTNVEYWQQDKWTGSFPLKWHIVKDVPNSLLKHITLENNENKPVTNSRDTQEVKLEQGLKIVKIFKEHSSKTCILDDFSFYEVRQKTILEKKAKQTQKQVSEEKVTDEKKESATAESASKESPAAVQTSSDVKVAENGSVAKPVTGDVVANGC
Description: two-hybrid; GAL4 yeast two-hybrid, pGBKT7 (BD) and pGADT7 (AD) fusions co-transformed into AH109 cells; growth on triple or quadruple dropout medium (-Leu/-Trp/-Ade/-His).

For experiment [3], the target named is T3, ECT3-BD (Arabidopsis thaliana) (UniProt F4K1Z0).
T3 sequence: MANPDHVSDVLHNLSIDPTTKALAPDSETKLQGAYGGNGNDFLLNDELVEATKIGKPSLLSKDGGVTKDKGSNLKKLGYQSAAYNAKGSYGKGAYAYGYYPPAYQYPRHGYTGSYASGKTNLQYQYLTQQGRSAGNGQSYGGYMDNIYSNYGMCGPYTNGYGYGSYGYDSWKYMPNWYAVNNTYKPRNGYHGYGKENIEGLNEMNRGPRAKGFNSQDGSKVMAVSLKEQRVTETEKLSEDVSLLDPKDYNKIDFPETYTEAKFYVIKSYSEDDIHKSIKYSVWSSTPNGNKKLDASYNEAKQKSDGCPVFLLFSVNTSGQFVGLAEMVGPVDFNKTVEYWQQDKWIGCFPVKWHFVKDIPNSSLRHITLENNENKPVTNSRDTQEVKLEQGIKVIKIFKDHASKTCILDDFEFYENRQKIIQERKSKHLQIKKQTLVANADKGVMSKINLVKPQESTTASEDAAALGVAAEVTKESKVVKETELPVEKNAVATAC
Described as above.

For experiment [4], the target named is T4, GST-tagged ECT2 fragment with the YTH domain alone (Arabidopsis thaliana) (UniProt Q9LJE5).
T4 sequence: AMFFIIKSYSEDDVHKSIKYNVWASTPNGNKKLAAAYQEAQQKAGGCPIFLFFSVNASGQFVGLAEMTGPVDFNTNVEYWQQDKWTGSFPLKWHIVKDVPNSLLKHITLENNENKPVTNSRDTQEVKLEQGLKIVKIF
Description: pull-down; GST pull-down: 100 pmol pre-cleared MBP-PAB2 or MBP-PAB4 mixed with 100 pmol GST or GST-ECT2 (full length or fragments) and glutathione magnetic agarose beads, 2 h at 4 °C, IPP buffer (150 mM NaCl, 0.1% NP-40, 10 mM Tris pH 7.4, 0.5 mM DTT); immunoblot with anti-MBP and anti-GST; both purified.

B1: SUMO-tagged ECT4 (protein, UniProt A0A1P8AS03 1-605)
chain: MSTVAPPADQAADVLKKLSLDSKSRTLEIPEPTKKTGVYQYGAMDSNGQVPSFDRSLSPMLPSDALDPSVFYVPNVYQQPYYYGYGSDYTGYTNSESVDMTSGAYGENASLVYPQGYGYAAFPYSPATSPAPQLGGDGQLYGAQQYQYPFPLTASSGPFASSVPASTQSKLSTNKAANSASAGIPKGMNGSAPVKPLNQSALYGNSALGGGLAAGYQDPRYSYDGFYTPVSWHDGSNFSDVQRSVSGSGVASSYSKANNNVPATRNQNSSSNSHYTSMYQPASMTGYAAQGYYDRVSPNKSYGQYGSTVRSGMGYGSSGYGSRTNERGWLNTDNKYRSRGRGNSYFYGNENIDGLNELNRGPRAKGTKATEEVSSEEVKKQTFDESNTEETVTCVLPDREECNRDDFPVEYKDAKFFIIKSYSEDDVHKSIKYNVWASTPNGNKKLDAAYQEAQQKSSGCPVFLFFSVNASGQFIGLAEMKGPVDFNKNIEYWQQDKWTGSFPLKWHILKDVPNSLLKHITLEYNENKPVTNSRDTQEVKLEQGLKVVKIFKEHNSKTCILDDFSFYEARQKTILEKKAKQQQSQKQVWEGKTNDEKPGTVDSTM
Turning to B1, in experiment [1], the binding entry is given as “binds”.

B2: ECT4-AD (protein, UniProt A0A1P8AS03 1-605)
chain: MSTVAPPADQAADVLKKLSLDSKSRTLEIPEPTKKTGVYQYGAMDSNGQVPSFDRSLSPMLPSDALDPSVFYVPNVYQQPYYYGYGSDYTGYTNSESVDMTSGAYGENASLVYPQGYGYAAFPYSPATSPAPQLGGDGQLYGAQQYQYPFPLTASSGPFASSVPASTQSKLSTNKAANSASAGIPKGMNGSAPVKPLNQSALYGNSALGGGLAAGYQDPRYSYDGFYTPVSWHDGSNFSDVQRSVSGSGVASSYSKANNNVPATRNQNSSSNSHYTSMYQPASMTGYAAQGYYDRVSPNKSYGQYGSTVRSGMGYGSSGYGSRTNERGWLNTDNKYRSRGRGNSYFYGNENIDGLNELNRGPRAKGTKATEEVSSEEVKKQTFDESNTEETVTCVLPDREECNRDDFPVEYKDAKFFIIKSYSEDDVHKSIKYNVWASTPNGNKKLDAAYQEAQQKSSGCPVFLFFSVNASGQFIGLAEMKGPVDFNKNIEYWQQDKWTGSFPLKWHILKDVPNSLLKHITLEYNENKPVTNSRDTQEVKLEQGLKVVKIFKEHNSKTCILDDFSFYEARQKTILEKKAKQQQSQKQVWEGKTNDEKPGTVDSTM
For the molecule B2, the binding entry in experiment [2] and in experiment [3] was “binds” throughout.

B3: MBP-tagged PAB4 (natural protein, Arabidopsis thaliana, UniProt O22173 1-662, looked up)
chain: MAQVQAPSSHSPPPPAVVNDGAATASATPGIGVGGGGDGVTHGALCSLYVGDLDFNVTDSQLYDYFTEVCQVVSVRVCRDAATNTSLGYGYVNYSNTDDAEKAMQKLNYSYLNGKMIRITYSSRDSSARRSGVGNLFVKNLDKSVDNKTLHEAFSGCGTIVSCKVATDHMGQSRGYGFVQFDTEDSAKNAIEKLNGKVLNDKQIFVGPFLRKEERESAADKMKFTNVYVKNLSEATTDDELKTTFGQYGSISSAVVMRDGDGKSRCFGFVNFENPEDAARAVEALNGKKFDDKEWYVGKAQKKSERELELSRRYEQGSSDGGNKFDGLNLYVKNLDDTVTDEKLRELFAEFGTITSCKVMRDPSGTSKGSGFVAFSAASEASRVLNEMNGKMVGGKPLYVALAQRKEERRAKLQAQFSQMRPAFIPGVGPRMPIFTGGAPGLGQQIFYGQGPPPIIPHQPGFGYQPQLVPGMRPAFFGGPMMQPGQQGPRPGGRRSGDGPMRHQHQQPMPYMQPQMMPRGRGYRYPSGGRNMPDGPMPGGMVPVAYDMNVMPYSQPMSAGQLATSLANATPAQQRTLLGESLYPLVDQIESEHAAKVTGMLLEMDQTEVLHLLESPEALNAKVSEALDVLRNVNQPSSQGSEGNKSGSPSDLLASLSINDHL
notes: also called MBP-PAB4; source: Escherichia coli BL-21 Gold, purified (amylose resin)
For B3, the binding result in experiment [4] was “no binding (tested: 100 pmol each)”.
